Measurements as given in the RNAGym collection of RNA variant scans (doi:10.1093/nar/gkz1192).
The source gives no read counts; variants with many changes may rest on few reads.

B1: CPEB3 Ribozyme (parent)
chain: UAACAGGGGGCCACAGCAGAAGCGUUCACGUCGCAGCCCCUGUCAGAUUCUGGUGAAUCUGCGAAUUCUGCUGUAUAUCUC

Variants of: B1
Assay: self-cleavage, relative activity (ratio to wild type); higher = more cleavage; in vitro, sequencing
Method in brief: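 After error-prone PCR and barcoding, CPEB3 ribozyme mutant libraries were transcribed with T7 RNA polymerase at 37°C for 5 hours, then given 15 min with DNase I before an EDTA stop, and they cleaved during both steps. Reverse transcription with template switching preceded Illumina sequencing. Relative activity divides a variant's cleaved/total read fraction by the unmutated ribozyme's. At least 5 reads were required per variant, and three batches were averaged.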

Variant | self-cleavage
A28U U60C A65G G73A C81U | 0.2
A28U A64G U67A U72C | 0.16
G30A U41A U60A | 0.21
G30A U43A G52U U76C | 0.47
G30A U41G A64G G73A U78C | 0.29
C29A U49C U51A A77G U78C | 0.16
C29A A47G A57G U58C U76C U78C | 0.19
C29U G33A U54C | 0.16
G30U A35G U58C | 0.09
A28U U60A A64G U72G | 0.18
A28U U41C U72C | 0.92
A28G U78C U80G | 0.81
C29U U41C U54C | 0.53
G30A A47U U72G A77G | 0.1
C29U A35U U51C U78C | 0.11
C29U A35G U41C | 1.01
A28U U41A U43G A65G | 0.09
G30U U43C A56G U60C | 0.37
C29A G33A G36U A64G | 0.17
C29G U51C A77G | 0.07
U31A A35G U43A A47G | 1.17
A28U U66A G73A | 0.16
A28U C32U A35U U72C | 0.05
A28U A57C U67A U69C | 0.1

Variant | self-cleavage
C29A A47G U69A U72C U80C | 0.12
C29A U51A A65G | 0.26
A28U A45U C50A A65G U66C | 0.14
A28U U48C A57G G63A | 0.77
A28U G52A G61U U72C | 0.54
A28U A47G A57G | 0.26
G30C C37U A45G U54C U80C | 0.08
C29U A35G A57G | 0.47
C29G A57G U67C | 0.15
C29U U31A U41C | 0.29
A28G U69C A77G | 0.19
G30A U41C C44U U54C U67C | 0.1
C29U U54A A65G | 0.22
A28U A45C A65G | 0.16
A28U U60A U66C U69C | 0.24
G30U A45U U60C | 0.09
G30U A35G A56G | 0.19
A28U U31A U66C | 0.45
G30A U41A U67C | 0.4
G30A A35G A45G U49C | 0.07
C29U G52A U54C A75G | 0.33
C29U A47G U58A | 0.16
A28U U49A A65G | 0.09
C29A U69G U74A | 0.26

Variant | self-cleavage
G30A A45U A47G | 0.11
A28U C39U A45G U67C U74G A75G | 0.06
G30C U67C G73C | 0.19
C29A G53C U58G | 0.1
A28U A35G U43C A47G U60A | 0.22
G30A C34G U51G | 0.17
A28U U60C C62U U69A | 0.2
C29U G61A A65G U78C | 0.05
A28U C38A U54C U72G | 0.24
G30C U31C U43A A56G | 0.17
A28U A45C A56G U60A C71G A77U | 0.06
A28U U41A A56G | 0.13
A28U U41C U78A | 0.74
C29G C38A U58C A64U | 0.15
A28G U69C U76C | 0.29
C29G A57U G61A | 0.13
C29G A56U A64U U80C | 0.2
A28G U72C A75G | 0.64
A28U A35U U49C A56G A57G | 0.15
C29U U43C U51A U66C U74C | 0.11
C29U G33U U43A | 0.1
A28U A56G A57G A65G | 0.14
A28U A77G U80C | 0.9
G30A U41G G53A A56G | 0.11

Variant | self-cleavage
A28U U58A U72C | 0.24
C29A A35G U41A | 0.2
A28U U49C U58C A77U U78C | 0.08
U31A A35G C38U U72G | 1.27
A28U C40U U43C A56G | 0.12
G30U A64C U76C | 0.08
A28U C32G A45G U48A U58C U69C | 0.09
C29A G33A A35G U69C U74C | 0.09
C29U U31A A35U A56G A75G | 0.15
G30C C39A U74C U78C | 0.07
A28U C32U U51G U76A | 0.17
A28U A35G U48A G55U U67C | 0.1
G30A A35G A57G U58C A77G | 0.1
A28U C38G A45G C50U U51A U69A | 0.16
C29U U31A C40U U51C | 0.18
A28U A57G U69A | 0.17
G30U A35U U74C | 0.17
A28U A45G A77U | 0.57
C29U A45G U72C | 0.48
C29U A35U A47G U78C | 0.2
A28U A57G U80A | 0.67
C29G U31G C40U U41A A47G U49A | 0.09
A28U U31A U60C | 0.08
C29U A47U G61A U74A | 0.24

Variant | self-cleavage
A28U U60C A64C U74C | 0.42
G30U U49C A65U | 0.1
G30A U43C A45G U58A | 0.16
C29U U49A U51A U60C U72C U74A U76C | 0.07
A28U U41C A47G A57U U60C C71A A75U | 0.1
C29U U49A U54C U78C | 0.13
C29G A35G U72A U74C | 0.12
G30A A45G U74A U80C | 0.42
A28U A47G G53C A56G | 0.45
U31A A35G A77G | 1.28
A28U U41A G70U | 0.4
A28U A35G A64G U69G U78C | 0.29
A28U U51A A56G | 0.25
C29A A35U U41C | 0.16
G30U U31A A35G U41A G61A A64G | 0.13
U31A A35U A47G U54A C59G | 0.08
C29U U48C A56U | 0.05
C29U C44G G46U | 0.14
A28U C32U A47U U78A | 0.04
U31A A35C A45G A47G U76A | 0.24
C29U A64G U66C U80A | 0.14
A28U G33U C37U | 0.14
A28U U31C A65G A75G | 0.06
C29A U66C U69C | 0.16

Variant | self-cleavage
A28U U31A A35G A47G U76C | 0.92
A28U U41A C50U | 0.16
A28U U54C A56G U67C U78C U80A | 0.08
A28U U54A A64U | 0.3
G30A C34U A45C U49A U78C | 0.14
C29A A56G U72C U74C | 0.2
C29U A64G U78A | 0.27
A28U A35G U60A | 0.93
A28U U51G U54C U80C | 1.02
G30U G52U U78C | 0.1
G30U A65G U72G | 0.1
A28U C32A C50U U72A | 0.08
A28U U49C U58C | 0.16
C29A U43A G52C U54A G73C | 0.93
G30U U41C U49C G70A | 0.34
A28U U41A A45G A47G U51A U72C | 0.07
C29A C37U A64G | 0.2
A28U U49C A64U | 0.16
G30A A35U U54C U58C C59G | 0.09
C29U U41C U51C | 0.4
C29U U51A U69A U80C | 0.2
G30U A35U U48C U54A | 0.13
A28U G52C G53U U54G | 0.83
C29U A56U U60A U72G | 0.1

Variant | self-cleavage
G30C U41A U43A U78C | 0.06
A28U G33U U80A C81U | 0.02
G30A C50U G73U | 0.21
G30A A35G U41C U58C U72C U76C | 0.11
G30C C38U U41C | 0.24
A28U G30C C32U G70C U74A | 0.11
C29U C32A U49A U80C | 0.19
G30A U41C A57G U72A U80C | 0.05
C29A U41C G46A | 0.15
C29U A56G A64G A77G | 0.13
C29U U31C U51A U80C | 0.31
A28U G36U U58A | 0.07
C29A U54A C62U U69C | 0.12
A28U C39A U60C | 0.15
A28U U43C U48C U69C | 0.2
A28U C38U U51C U80C C81U | 0.76
G30A U69A U80C | 0.22
G30A U60A A64G | 0.2
A28U C37U A45U | 0.18
G30C C38U G73A | 0.33
C29A A35U C38U | 0.2
G30A C62A U67C U69C | 0.07
A28U U54C U69A A77U U80A | 0.4
